Z-score data for 69 molecules are collected here from PubChem BioAssay AID488969 (Vanderbilt High Throughput Screening Facility, 2010).

Whole data set: some 110,000 compounds, median “z-score” near -0.1, cut for the highest 2% near 2. This is one part of the list.

The assay has as its target Metabotropic glutamate receptor 8 (Rattus norvegicus) (UniProt P70579). The assay can be described thus: rat mGluR8 modulators via GIRK flux, primary screen, cell-based, thallium flux, HTS (AID 488969). Particulars: HEK293 rat mGluR8, GIRK (G protein-gated inwardly rectifying potassium channel) thallium flux, FluoZin2; at 10 µM; stronger effect = higher value; submaximal glutamate (EC20) added with thallium.
Chain of UniProt P70579 (P70579 whole entry, looked up): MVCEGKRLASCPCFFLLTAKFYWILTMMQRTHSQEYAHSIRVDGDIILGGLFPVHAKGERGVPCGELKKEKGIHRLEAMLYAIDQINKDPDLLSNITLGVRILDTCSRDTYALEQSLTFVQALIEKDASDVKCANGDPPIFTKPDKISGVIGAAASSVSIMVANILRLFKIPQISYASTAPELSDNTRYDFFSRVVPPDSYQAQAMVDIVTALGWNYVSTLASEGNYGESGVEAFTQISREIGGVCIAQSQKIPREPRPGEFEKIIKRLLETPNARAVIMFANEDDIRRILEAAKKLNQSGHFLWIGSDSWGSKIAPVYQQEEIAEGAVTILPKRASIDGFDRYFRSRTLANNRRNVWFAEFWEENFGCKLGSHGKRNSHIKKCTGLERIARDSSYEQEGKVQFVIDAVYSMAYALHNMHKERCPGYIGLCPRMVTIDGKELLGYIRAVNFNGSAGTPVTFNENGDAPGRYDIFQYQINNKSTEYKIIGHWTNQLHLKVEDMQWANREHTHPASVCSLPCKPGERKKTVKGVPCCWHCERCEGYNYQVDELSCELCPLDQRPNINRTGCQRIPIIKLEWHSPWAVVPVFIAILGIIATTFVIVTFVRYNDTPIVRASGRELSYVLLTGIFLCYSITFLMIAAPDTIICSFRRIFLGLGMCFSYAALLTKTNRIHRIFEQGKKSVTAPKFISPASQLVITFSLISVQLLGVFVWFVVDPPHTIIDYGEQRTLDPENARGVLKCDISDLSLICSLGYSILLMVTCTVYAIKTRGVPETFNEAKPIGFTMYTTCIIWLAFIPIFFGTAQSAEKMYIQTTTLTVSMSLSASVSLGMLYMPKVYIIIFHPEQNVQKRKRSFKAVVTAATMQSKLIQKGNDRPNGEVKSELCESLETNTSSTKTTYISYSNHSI
Regarding `CCOC(=O)N1CCC(NC(=O)CSCc2nc(-c3sccc3C)oc2C)CC1`, the z-score turned out to be 0.18.

For `O=C1CC(C(=O)Nc2ccc(F)cc2)S/C(=N\N=C\c2ccco2)N1` (centres undefined), the z-score is -0.192.

In the case of `Cc1cc(Cl)c(OCCCN(C)C)c(Br)c1`, the z-score is -0.483.

`COc1ccc(OC)c(-c2nc(C(N)=O)c3[nH]c(=O)n(-c4ccc(F)cc4)c3n2)c1` registered a z-score of -0.455.

Molecule `Cc1cc(C)nc(Sc2nc(C)nc3c2oc2ccccc23)n1` registered a z-score of -0.19.

In turn, `COCCN(C(=S)Nc1c(C)cc(C)cc1C)C(C)c1cccnc1` (centres undefined) displayed a z-score of -0.1.

Consider `Nc1ccc2oc(-c3cccc4ccccc34)nc2c1`, for which the z-score is -0.0827.

On to `O=C(COC(=O)CCc1ccccc1)Nc1ncc(Cl)cc1Cl`, for which the z-score was -0.612.

Regarding `CC(C)(C)NC(=O)Cn1c(SCC(=O)Nc2nccs2)nc2ccccc21`, the z-score was -0.178.

Consider `O=C(Nc1cccc(F)c1)C1CCCN1S(=O)(=O)c1cccc2cccnc12` (centres undefined), for which the z-score is -0.182.

The molecule `CC(C)CNc1nc(Oc2ccc(=O)n(C)n2)nc(N2CCOCC2)n1` displayed a z-score of 0.896.

Molecule `NC(=O)c1ccccc1OCCOCCOCCOc1ccccc1C(N)=O` showed a z-score of 0.836.

Consider `COc1ccc(C(O)P(=O)(OCC(C)C)OCC(C)C)c(OC)c1` (centres undefined), for which the z-score was -0.17.

`CCOc1ccccc1N1CC(C(=O)Nc2ccc(C(=O)O)cc2)CC1=O` (centres undefined) displayed a z-score of 0.0337.

`CCOc1ccc(CCNC(=O)C2CCN(S(=O)(=O)N3CCOCC3)CC2)cc1OCC` registered a z-score of 0.142.

In turn, `COc1ccc(NS(=O)(=O)c2ccc(NC(=S)NC(=O)/C=C/c3ccccc3)cc2)nn1` registered a z-score of -0.25.

Regarding `CCN1CCN(Cc2nc3c(c(=O)n(C)c(=O)n3C)n2C(C)C(C)=O)CC1` (centres undefined), the z-score worked out at 1.36.

For the molecule `Cn1cccc1Cc1nnc(SCC(=O)N2CCCCCC2)n1CCc1ccccc1`, the z-score was -0.547.

`CCc1ccccc1NC(=O)CSc1nnc([C@H](CCSC)NC(=O)OC(C)(C)C)o1`: the z-score is -0.132.

In turn, `Cc1nc2ccccc2n1CC(O)COC1CCCCC1` (centres undefined) returned a z-score of -0.492.

For `Cc1cccc(C2C3=C(Nc4[nH]n(-c5ccccc5)c(=O)c42)c2ccccc2C3=O)c1` (centres undefined), the z-score was -0.621.

Molecule `O=C(N(Cc1ccccc1)c1ccccn1)C12CC3CC(CC(C3)C1)C2` gave a z-score of -0.634.

`O=C(/C=C/c1ccc(F)cc1)NC(=S)NNC(=O)c1cccnc1` came in with a z-score of -0.12.

`COc1ccc(C(=O)OCC(=O)Nc2ccc(F)c(F)c2)cc1OC` showed a z-score of -0.329.

On to `O=C(O)c1oc2ccc(Br)cc2c1-n1cccc1`, for which the z-score is -0.973.

In the case of `COc1ccc(C(CC(=O)c2ccc(C)cc2)C(C#N)C#N)cc1OC` (centres undefined), the z-score was -0.273.

Molecule `CC(=N\Nc1ccc(Cl)cc1)/C(=N/O)C(=O)Nc1ccccc1` had a z-score of 0.0464.

As for `COc1ccc(C(=O)Oc2ccc3oc(=O)sc3c2)cc1`, the z-score is 0.177.

As to `O=C(Nc1nc2c(s1)CCCC2)c1cc(-c2ccncc2)nc2ccccc12`, the z-score was -0.0362.

As to `Cn1c(=O)[nH]c(=O)c2c1nc(SCCN1CCOCC1)n2Cc1ccccc1`, the z-score was -0.109.

In turn, `CC(=O)Nc1nc2c(c3c1c(=O)oc1ccccc13)CC(C)CC2` (centres undefined) displayed a z-score of -0.424.

`O=S(=O)(Nc1nc2ccccc2nc1Cl)c1ccc2ccccc2c1` came in with a z-score of -0.627.

With `O=C(O)c1nc(N2CCOCC2)nc(N2CCOCC2)n1`, the z-score is -0.103.

In turn, `CCOC(=O)N1CCN(C(=O)CN(C2CCCCC2)S(=O)(=O)c2ccc(F)cc2)CC1` displayed a z-score of 0.315.

In the case of `O=C(Cn1nc(-c2ccccc2)ccc1=O)NCCN1CCN(c2cccc(Cl)c2)CC1`, the z-score is -0.34.

Take `CCOC(=O)N1CCN(C(=O)c2ccc(NS(C)(=O)=O)cc2)CC1`: the z-score was found to be 0.167.

For `CCn1cc(Br)c(C(=O)NN)n1`, the z-score is -0.14.

In the case of `CC(C)(C)c1ccc(C(=O)NCCCN2CCN(CCCNC(=O)c3ccc(C(C)(C)C)cc3)CC2)cc1`, the z-score was -0.701.

`Cc1ccc(S(=O)(=O)N2CCN(C(=O)CSc3nnc(-c4ccco4)o3)CC2)cc1` displayed a z-score of -0.115.

Take `CCN1C(=O)CC(C(=O)NC)SC1=Nc1cc(Cl)c(O)c(Cl)c1` (centres undefined): the z-score is -0.672.

The molecule `Cc1ccc(-n2nnnc2SCC(=O)Nc2nc(-c3ccc(F)cc3)cs2)cc1C` displayed a z-score of 0.0603.

Consider `[O-][n+]1onc2c3cc(-c4ccccc4)nnc3ccc21`, for which the z-score was -0.825.

With `CCSc1ncc(C)cc1[N+](=O)[O-]`, the z-score was -0.12.

In the case of `O=C1CSC(c2ccc(F)cc2)N1c1nnc(C23CC4CC(CC(C4)C2)C3)s1` (centres undefined), the z-score was -0.38.

`Cc1ccc(SCCNC(=O)c2ccccc2C)cc1` had a z-score of -0.0405.

In turn, `Cc1cc(C(F)(F)F)c(C#N)c(N2CCOCC2)n1` registered a z-score of 0.124.

`O=c1oc2ccccc2cc1-c1nnc(NCc2ccco2)s1` gave a z-score of -0.037.

In the case of `CCOc1ccc2nc(NCCNC(=O)Nc3cccc(C)c3)c(C#N)cc2c1`, the z-score is -0.262.

`CCCc1cc(=O)oc2cc3oc(C)c(C)c3cc12` returned a z-score of -0.654.

As to `COC(=O)c1cn(C)c2ccc(S(=O)(=O)N3CCCC3)cc2c1=O`, the z-score is 0.0682.

In the case of `COC(=O)c1cn(CC(=O)N2CCCCCC2)c2ccccc12`, the z-score is -0.391.

`NC(=O)C1(N2CCCCC2)CCN(C2CC(=O)N(Cc3ccc(N4CCCC4=O)cc3)C2=O)CC1` (centres undefined) came in with a z-score of -0.289.

In the case of `Cc1cccc(Nc2ncc3c(n2)CC(c2ccco2)CC3=O)c1` (centres undefined), the z-score is -1.12.

`CCOC(=O)N1CCC2(CC1)C(C(=O)C13CC4CC(CC(C4)C1)C3)C2(C#N)C#N` (centres undefined) registered a z-score of 0.27.

`CCCN1C2CCCC1CC(NC(=O)c1ccccc1F)C2` (centres undefined) had a z-score of -0.558.

Molecule `COc1ccccc1NC(=O)C1=C(C)Nc2ncnn2C1c1ccccc1C` (centres undefined) came in with a z-score of -0.278.

`COc1cc(CC(=O)Nc2ccc3nc(C)sc3c2)cc(OC)c1OC` came in with a z-score of -0.158.

On to `CC(C)(C)c1ccc(-c2nc(C#N)c(NCc3ccncc3)o2)cc1`, for which the z-score was -0.377.

As for `CCOC(=O)CC1ON(C)C(=O)N1c1ccc(Cl)cc1Cl` (centres undefined), the z-score is -0.877.

As to `CS(=O)(=O)N(CC(=O)NC1CCCC1)c1cccc(F)c1`, the z-score amounted to 0.185.

Molecule `O=C(CCSc1nc(-c2ccco2)cc(C(F)(F)F)n1)NCc1ccccn1` gave a z-score of -0.409.

Molecule `CC[n+]1c(/C=C/C=C/N(C(C)=O)c2ccccc2)sc2ccccc21` came in with a z-score of -1.67.

With `c1ccc(Cc2nc3ccccc3o2)cc1`, the z-score was found to be 0.245.

Regarding `Cc1ccc(C(=O)Nc2nc3ccc(S(C)(=O)=O)cc3s2)o1`, the z-score was -0.275.

In turn, `[2H]c1c([2H])c([2H])c(-c2nc(N3CCCCCC3)sc2C(=O)c2ccccc2)c([2H])c1[2H]` returned a z-score of -0.0335.

In turn, `O=C(CN(c1ccccc1F)S(=O)(=O)c1ccccc1)N1CCCCCC1` gave a z-score of 0.433.

In turn, `N#Cc1nc(COc2ccccc2)oc1N1CCN(Cc2ccccc2)CC1` yielded a z-score of -0.0798.

Consider `COc1cc(C(c2c(C)[nH][nH]c2=O)c2c(C)[nH][nH]c2=O)ccc1OCc1ccc([N+](=O)[O-])cc1`, for which the z-score was -0.18.

Molecule `CCn1c(SCC(=O)C(C)(C)C)nnc1-c1cnccn1` gave a z-score of 0.117.
